Out of some 360,000 compounds screened, about 16,000 (4.4%) were called active. This list was built around the results that the source calls inconclusive (neither active nor inactive); the mix of calls is not that of the screen. Calls follow the shape of the dose curve; as a rule, active = well fitted inhibition curve with a large enough effect; inconclusive = small, poorly fitted or top-dose-only effect; inactive = no such curve, though single readings can be large or run the other way. Potencies beside an inconclusive call are fits to weak or partial responses and may not hold up.
Biological target: Bromodomain adjacent to zinc finger domain protein 2B (Homo sapiens) (UniProt Q9UIF8)
UniProt Q9UIF8, sequence (Q9UIF8 whole entry, looked up, the tested form may be a part): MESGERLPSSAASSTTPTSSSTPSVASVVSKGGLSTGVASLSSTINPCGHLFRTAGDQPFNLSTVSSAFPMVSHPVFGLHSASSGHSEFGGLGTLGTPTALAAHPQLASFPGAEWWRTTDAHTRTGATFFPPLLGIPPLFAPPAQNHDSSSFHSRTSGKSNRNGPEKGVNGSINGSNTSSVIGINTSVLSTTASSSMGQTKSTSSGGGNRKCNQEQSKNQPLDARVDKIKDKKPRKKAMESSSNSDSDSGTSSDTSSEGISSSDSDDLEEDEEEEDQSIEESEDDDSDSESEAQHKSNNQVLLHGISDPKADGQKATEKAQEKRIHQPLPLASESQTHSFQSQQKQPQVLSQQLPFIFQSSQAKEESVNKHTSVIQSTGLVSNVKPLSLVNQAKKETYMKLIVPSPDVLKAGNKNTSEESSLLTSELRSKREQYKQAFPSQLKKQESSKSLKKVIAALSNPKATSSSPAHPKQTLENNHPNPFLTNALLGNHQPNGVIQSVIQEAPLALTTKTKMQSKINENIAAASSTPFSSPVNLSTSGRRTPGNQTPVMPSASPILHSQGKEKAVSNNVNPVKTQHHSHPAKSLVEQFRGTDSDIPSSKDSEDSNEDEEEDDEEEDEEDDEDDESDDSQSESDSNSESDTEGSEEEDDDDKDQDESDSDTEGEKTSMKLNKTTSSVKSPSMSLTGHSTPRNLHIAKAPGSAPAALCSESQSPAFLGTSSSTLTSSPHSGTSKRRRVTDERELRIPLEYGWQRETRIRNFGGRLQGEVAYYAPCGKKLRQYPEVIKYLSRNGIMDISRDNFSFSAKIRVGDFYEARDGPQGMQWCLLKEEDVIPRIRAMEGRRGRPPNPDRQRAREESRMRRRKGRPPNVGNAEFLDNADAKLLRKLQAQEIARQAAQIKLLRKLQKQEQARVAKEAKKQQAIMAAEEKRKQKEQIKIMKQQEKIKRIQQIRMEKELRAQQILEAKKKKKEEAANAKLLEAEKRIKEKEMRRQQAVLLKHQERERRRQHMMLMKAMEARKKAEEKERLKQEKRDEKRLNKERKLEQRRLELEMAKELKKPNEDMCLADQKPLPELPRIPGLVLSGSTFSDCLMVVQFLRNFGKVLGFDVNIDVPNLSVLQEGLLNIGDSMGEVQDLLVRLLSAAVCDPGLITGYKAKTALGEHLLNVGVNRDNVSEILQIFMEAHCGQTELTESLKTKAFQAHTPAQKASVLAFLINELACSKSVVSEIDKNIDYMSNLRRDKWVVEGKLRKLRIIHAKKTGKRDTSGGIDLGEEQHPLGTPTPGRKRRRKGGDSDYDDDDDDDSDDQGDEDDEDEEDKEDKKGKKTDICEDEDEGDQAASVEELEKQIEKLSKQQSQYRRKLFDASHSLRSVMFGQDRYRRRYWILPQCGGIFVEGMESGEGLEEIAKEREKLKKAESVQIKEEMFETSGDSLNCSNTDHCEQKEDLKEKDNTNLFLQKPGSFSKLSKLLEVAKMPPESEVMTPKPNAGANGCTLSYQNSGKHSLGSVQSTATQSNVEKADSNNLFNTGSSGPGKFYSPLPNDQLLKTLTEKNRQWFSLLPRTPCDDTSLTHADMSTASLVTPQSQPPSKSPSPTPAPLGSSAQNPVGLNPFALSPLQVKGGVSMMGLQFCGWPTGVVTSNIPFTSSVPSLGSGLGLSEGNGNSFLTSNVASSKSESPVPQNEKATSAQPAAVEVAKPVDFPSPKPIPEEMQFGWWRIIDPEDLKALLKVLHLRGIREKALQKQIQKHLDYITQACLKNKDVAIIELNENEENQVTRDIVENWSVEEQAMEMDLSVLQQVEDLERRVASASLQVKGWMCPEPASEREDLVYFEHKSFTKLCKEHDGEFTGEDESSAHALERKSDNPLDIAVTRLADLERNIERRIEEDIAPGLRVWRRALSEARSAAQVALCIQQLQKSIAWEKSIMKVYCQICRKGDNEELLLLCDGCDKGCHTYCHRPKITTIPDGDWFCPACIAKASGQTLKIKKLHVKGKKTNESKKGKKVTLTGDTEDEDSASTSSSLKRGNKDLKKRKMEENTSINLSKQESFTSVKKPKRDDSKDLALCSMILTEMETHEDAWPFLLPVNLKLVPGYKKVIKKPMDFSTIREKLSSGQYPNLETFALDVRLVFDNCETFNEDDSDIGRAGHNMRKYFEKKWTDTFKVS
Experiment: qHTS Assay for Inhibitors of BAZ2B; also: nearly all actives have a fitted effect of over 60% in size
Conditions: AlphaScreen BAZ2B-H3K14Ac peptide displacement; activity change, negative = inhibition: at 114 µM (top of the series)
Procedure, shortened: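 Protein-peptide AlphaScreen: BAZ2B 50 nM, b-H3K14Ac 50 nM, 1x PBS pH 7.4 + 0.01% Tween-20. Preincubation 30 min RT; cpd 30 min RT (top 110 uM); beads 20 min RT, light-protected.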
% is scaled to controls: 0 for no effect and ±100 for the full control effect; potency is read from the fitted curve at half-maximal effect; tags tell the direction and shape of the fitted curve.

SMILES	Potency	activity change, negative = inhibition
COc1ccc(N=c2cc(-c3ccc(O)cc3)oc3ccccc23)cc1	active: 44.7 µM	
CCC(C(=O)N1CCN(c2cc(C)ccc2C)CC1)n1nc(C)n2c(cc3occc32)c1=O (stereo unspecified)	inconclusive: 25.1 µM [inhibitor, full curve]	
N#Cc1ccc(COC(=O)C2CC(=O)N(CCc3ccccc3)C2)cc1 (stereo unspecified)	inconclusive: 89.1 µM [inhibitor, single point]	
Cc1nc2sc(C(c3ccco3)N3CCC(C)CC3)c(O)n2n1 (stereo unspecified)		inactive: -2.09%
Cc1ccc2c(CN3CCN(C(=O)c4ccc(Br)cc4)CC3)cc(=O)oc2c1		inactive: -15.8%
C=CCOc1c(OC)cc(/C=N/Nc2cccc(C(=O)O)c2)c(Br)c1Br	active: 39.8 µM	
CCN(CC)CCCNc1nc(SC)nc2sc3c(c12)CCN(C)C3		inactive: -12%
COc1ccc(S(=O)(=O)N2CCC(C(=O)NCCc3c[nH]c4ccccc34)CC2)cc1		inactive: -8.92%
CSCC[C@H](NC(=O)COc1ccc(Cl)cc1)c1nc2ccccc2[nH]1	inconclusive: 79.4 µM [inhibitor, single point]	
Cc1nc(SCC(=O)Nc2ccc(F)cc2)c2oc3ccccc3c2n1		inactive: 2.64%
Nc1cc([N+](=O)[O-])cc2oc(-c3ccccc3)cc12	active: 10 µM	
O=C(Oc1ccc([N+](=O)[O-])cc1)c1cc(-c2ccccc2)nc2ccccc12		inactive: -21%
c1ccc2c(c1)CCN(c1nc(CN3CCOCC3)nc3sc4c(c13)CCCC4)C2	active: 35.5 µM	
O=C1C=C(N2CCOCC2)C2(CCCCC2)O1	inconclusive: 35.5 µM [inhibitor, partial curve]	
O=C(c1cc(-c2ccco2)nc2ccccc12)N1CCN(c2ccc(F)cc2)CC1	active: 50.1 µM	
Nc1[nH][nH]c(=O)c1N=Nc1cccc(Cl)c1	inconclusive: 63.1 µM [inhibitor, partial curve]	
Cc1ccc2c(C)c(C(=O)Nc3ccc(S(=O)(=O)Nc4onc(C)c4C)cc3)oc2c1	inconclusive: 50.1 µM [inhibitor, partial curve]	
CCOc1ccccc1N1CCN(C(=O)c2cc(-c3cc(OC)ccc3OC)nc3ccccc23)CC1	inconclusive: 7.94 µM [inhibitor, partial curve]	
COc1ccc(C2CC(=O)c3c(C)nc(N4CCN(Cc5ccccc5)CC4)nc3C2)cc1OC (stereo unspecified)	inconclusive: 79.4 µM [inhibitor, partial curve]	
CCOC(=O)/C(C#N)=C1\SS/C(=C(/C#N)C(=O)OCC)S1	inconclusive: 50.1 µM [inhibitor, partial curve]	
O=C(O)CCCCCN1C(=O)/C(=C\c2ccc(-c3ccc(Cl)cc3)o2)SC1=S	inconclusive: 2.51 µM [inhibitor, full curve, poor fit]	

From PubChem BioAssay AID504333 (National Center for Advancing Translational Sciences (NCATS), 2011)
